The other results are listed elsewhere or left out. Read counts after selection give these values, which scatter widely. Scores sum up all selected molecules that hold the word; the word was not tested alone.
The sequences below were run on IMP3 RRM1-2 (assay: 6-mer SELEX enrichment z-score vs GST control; IMP3 is the RNA-binding protein IGF2BP3; higher = more enriched by binding). Settings: construct: RRM1-2 (1-163); SELEX round: R2.
Experimental: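 SELEX-seq with GST-tagged IMP3 RRM1-2 (Met1-Asn163) and an N40 RNA pool, round 2. 6-mer enrichment z-score normalised to GST SELEX. RNA written as DNA (T = U).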

Sequence of IMP3 RRM1-2 (chain, as listed by the source): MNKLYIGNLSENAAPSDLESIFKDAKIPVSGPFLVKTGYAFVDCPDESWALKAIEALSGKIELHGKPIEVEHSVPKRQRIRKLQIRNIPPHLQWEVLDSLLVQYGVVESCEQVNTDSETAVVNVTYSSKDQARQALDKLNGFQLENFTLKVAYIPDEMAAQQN

Row | Sequence | 6-mer SELEX enrichment z-score
1 | AGTCTT | 0.317
2 | TCTCAC | 0.784
3 | TTGCCT | 0.08
4 | TCGGGT | 0.424
5 | GAGGTT | 0.255
6 | GCGATA | -0.41
7 | GTAGTT | 0.431
8 | ACGGTT | 0.028
9 | CAGTAC | 0.514
10 | AGAAGT | -0.584
11 | GCCTCC | -0.275
12 | CAGCTC | 0.505
13 | GTCACA | 0.756
14 | CGTTCC | 0.037
15 | ACCTAG | -0.563
16 | TATTGG | 0.335
17 | ATGATA | -0.575
18 | CACGGT | 0.401
19 | TACCGT | -0.194
20 | CTTCGG | 0.348

Row | Sequence | 6-mer SELEX enrichment z-score
21 | CTGAGT | -0.202
22 | ATCATC | 2.42
23 | GTCCAG | -0.082
24 | AGGCCT | -0.006
25 | AGTGCG | 0.045
26 | AGTGGA | -0.321
27 | GTAGGG | 0.321
28 | GATAAA | -1.65
29 | TCAATG | 0.377
30 | GCGGCC | 0.028
31 | GTCCCG | -0.281
32 | ACCTTT | -0.173
33 | GGTGCT | 0.337
34 | CCTTCG | 0.003
35 | CGCGCT | 0.188
36 | GAAGAA | -1.76
37 | GGCCCC | -0.376
38 | AGACTT | -0.331
39 | ACACTG | 0.731
40 | TGTACG | -0.225
